Laboratory results published in the RNAGym collection of RNA variant scans (doi:10.7554/elife.90254).
Read counts are not given, so values of variants with three or more changes are uncertain.

B1: LINE1-mini (parent)
chain: GGCAGAGCUCAACACAGCGUGGCAAAGUGGCUGUGGCUAGACUGCC

Variants of: B1
Experiment: self-cleavage, relative activity (ratio to wild type); higher = more cleavage; in vitro, sequencing; the parent is a self-cleaving ribozyme

Variant	self-cleavage
GGCAGAGCUUAACACAGCGUCGCAUAGUGGCUGUGGCUAGACUGCC [C10U G21C A25U]	0.13
GGCAGAGCUUAACACAGCGUCGCAAAGUUGCUGAUGCUAGACUGUC [C10U G21C G29U U34A G35U C45U]	0.02
GGCAGAGCUUAACACAGCGUCGCAAAGUGGCUGGGGCUAGAUUGCC [C10U G21C U34G C42U]	0.07
GGCAGAGCUUAACACAGCGUUGCUAAGUGGCUGUGGUUAGACUGCC [C10U G21U A24U C37U]	0.03
GGCAGAGCUUAACACAGCGUUGCAAAGUGGCUUUUGCCAGACUGCG [C10U G21U G33U G35U U38C C46G]	0.01
GGCAGAGCUUAACACAGCGUUGCAAAGUGGCUGUGGCUAAAGUGCC [C10U G21U G40A C42G]	0.03
GGCAGAGCUUAACACAGCGUGACAACGUGGCUGUGGAUAGGCUGGC [C10U G22A A26C C37A A41G C45G]	0.01
GGCAGAGCUUAACACAGCGUGACAAAGUUGCUGUGACUAGACUGAC [C10U G22A G29U G36A C45A]	0.03
GGCAGAGCUUAACACAGCGUGCAAAAGCGGCUGUAGAUAGACUGCC [C10U G22C C23A U28C G35A C37A]	0
GGCAGAGCUUAACACAGCGUGCCAAAGUGGCUGUGGCUAAACUGCC [C10U G22C G40A]	0.07
GGCAGAGCUUAACACAGCGUGCCAAAGUGGCCGUGGCUUCACCGCU [C10U G22C U32C A39U G40C U43C C46U]	0.01
GGCAGAGCUUAACACAGCGUGUCCAAGUGGCUGUGGCUCGACUGCC [C10U G22U A24C A39C]	0.16
GGCAGAGCUUAACACAGCGUGUCAUAGUGGCUGUGGCUAGACUGCC [C10U G22U A25U]	0.4
GGCAGAGCUUAACACAGCGUGUCAAAGUGGCUGUAGCUAGACUGAC [C10U G22U G35A C45A]	0.04
GGCAGAGCUUAACACAGCGUGUCAAAGUGGCUGUGGCUACAUUGCC [C10U G22U G40C C42U]	0.02
GGCAGAGCUUAACACAGCGUGGCAAAAUGGCUGUGGCUGGACUGUC [C10U G27A A39G C45U]	0.04
GGCAGAGCUUAACACAGCGUGGCAAAAUGGCUUUGGCUAGGCUGCC [C10U G27A G33U A41G]	0.02
GGCAGAGCUUAACACAGCGUGGCAAAAUGGCUGCGGCUAGACUGCC [C10U G27A U34C]	0.05
GGCAGAGCUUAACACAGCGUGGCAAACUUGCUGUGGCUAGACAGCC [C10U G27C G29U U43A]	0.06

Variant	self-cleavage
GGCAGAGCUUAACACAGCGUGGCAAACUGGCUUUGGUUAGAUUGCC [C10U G27C G33U C37U C42U]	0.02
GGCAGAGCUUAACACAGCGUGGCAAAUUGGUUGUGGCUAGACUGCU [C10U G27U C31U C46U]	0.24
GGCAGAGCUUAACACAGCGUGGCAAAUUGGCUGUGGCUAGACUGUC [C10U G27U C45U]	0.23
GGCAGAGCUUAACACAGCGUGGCAAAUUAGUUGUGGCUAGACUGCC [C10U G27U G29A C31U]	0.11
GGCAGAGCUUAACACAGCGUGGCAAAUAGGCUGUGGCUAGACUGUC [C10U G27U U28A C45U]	0.32
GGCAGAGCUUAACACAGCGUGGCAAAGUAGGUCUGGCUAGACUGCC [C10U G29A C31G G33C]	0.04
GGCAGAGCUUAACACAGCGUGGCAAAGUAGCUGUGGCUAGACUACC [C10U G29A G44A]	0.12
GGCAGAGCUUAACACAGCGUGGCAAAGUAGCUGUGGCAAGACUGCC [C10U G29A U38A]	0.05
GGCAGAGCUUAACACAGCGUGGCAAAGUCGGUGUGGGUCGGCUGCC [C10U G29C C31G C37G A39C A41G]	0.02
GGCAGAGCUUAACACAGCGUGGCAAAGUCGGUGUCGGUAGACUGCC [C10U G29C C31G G35C C37G]	0.01
GGCAGAGCUUAACACAGCGUGGCAAAGUCGUUGGGGCUAGACUGCC [C10U G29C C31U U34G]	0.2
GGCAGAGCUUAACACAGCGUGGCAAAGUCGCUGUGGCUAGAGUGUC [C10U G29C C42G C45U]	0.03
GGCAGAGCUUAACACAGCGUGGCAAAGUCUCUGCGGCUAGAAUGCC [C10U G29C G30U U34C C42A]	0.02
GGCAGAGCUUAACACAGCGUGGCAAAGUUGAUGUGGCUAGACUGCC [C10U G29U C31A]	0.08
GGCAGAGCUUAACACAGCGUGGCAAAGUUGGUGUGGCUAGGCUGCC [C10U G29U C31G A41G]	0.02
GGCAGAGCUUAACACAGCGUGGCAAAGUUGCUGUGGCGAGACUGCC [C10U G29U U38G]	0.02
GGCAGAGCUUAACACAGCGUGGCAAAGUGAUUGUGGCUAGACUGCC [C10U G30A C31U]	0.19
GGCAGAGCUUAACACAGCGUGGCAAAGUGGCUAUGGCUGGACUGCC [C10U G33A A39G]	0.02
GGCAGAGCUUAACACAGCGUGGCAAAGUGGCUCUCGCUAGACUGCC [C10U G33C G35C]	0.05

Variant	self-cleavage
GGCAGAGCUUAACACAGCGUGGCAAAGUGGCUUUCGCUAGACUGCC [C10U G33U G35C]	0.05
GGCAGAGCUUAACACAGCGUGGCAAAGUGGCUUUGACUAGACUGCC [C10U G33U G36A]	0.04
GGCAGAGCUUAACACAGCGUGGCAAAGUGGCUGUAGCUAGAAUGCC [C10U G35A C42A]	0.01
GGCAGAGCUUAACACAGCGUGGCAAAGUGGCUGUAGCUAGACUGCA [C10U G35A C46A]	0.04
GGCAGAGCUUAACACAGCGUGGCAAAGUGGCUGUCGCUAGACUUCC [C10U G35C G44U]	0.02
GGCAGAGCUUAACACAGCGUGGCAAAGUGGCUGUGUAUAGACUGCC [C10U G36U C37A]	0.04
GGCAGAGCUUAACACAGCGUGGCAAAGUGGCUGUGGCUAUUCUACC [C10U G40U A41U G44A]	0.03
GGCAGAGCUUAACACAGCGAGGCAGAGCGGCUGUGGCUAGACUGCC [C10U U20A A25G U28C]	0.14
GGCAGAGCUUAACACAGCGAGGCAAAGUGGCUGUGGCUUCACUGCC [C10U U20A A39U G40C]	0.01
GGCAGAGCUUAACACAGCGAGGUAGGGUUGCUGUGGCUAGACUGCC [C10U U20A C23U A25G A26G G29U]	0.05
GGCAGAGCUUAACACAGCGAGGCAAACUUGCUGUGGCUACACUGCC [C10U U20A G27C G29U G40C]	0.01
GGCAGAGCUUAACACAGCGAGGCAAAUUGGCUGUGGCUAGACUGCC [C10U U20A G27U]	0.1
GGCAGAGCUUAACACAGCGAGGCAAAGUGCCUGUGGCUAGACUGCC [C10U U20A G30C]	0.45
GGCAGAGCUUAACACAGCGAGGCAAAGUGGCUGUGGCUAGACGGCC [C10U U20A U43G]	0.02
GGCAGAGCUUAACACAGCGCGGCAAAGUGGCUGUGGCUCGACUGCC [C10U U20C A39C]	0.02
GGCAGAGCUUAACACAGCGCGGCAAAGUGGCUGUGGAUAGCCUGUC [C10U U20C C37A A41C C45U]	0.01
GGCAGAGCUUAACACAGCGCGGCAAAGUGGCUGUGGCUAGACUGCG [C10U U20C C46G]	0.46
GGCAGAGCUUAACACAGCGCGGCAAAGUUGCUGUGGCUAGACAGCC [C10U U20C G29U U43A]	0.02
